# In PMC9911399, “Two distinct binding modes provide the RNA-binding protein RbFox with extraordinary sequence specificity”:
# Substitutions are numbered along the chain they refer to; changes in the protein carry UniProt numbers. Some of the results follow.
# T1: RBFOX1 RRM RbFoxmut (Fox-RRM*) (Homo sapiens, UniProt Q9NWB1 109-208, R118D;E147R;N151S;E152T)
# T1 sequence: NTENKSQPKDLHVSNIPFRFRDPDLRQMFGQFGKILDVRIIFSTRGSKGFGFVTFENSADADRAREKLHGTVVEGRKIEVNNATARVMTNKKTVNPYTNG
# B1: UCACAAG (DNA:RNA)
# RNA: GGGAGACCGGAAUUCAGAUUGUCCUCACAAGUUAAAUCCCGUCGUAGCCACCA
# DNA 1: CAATCTGAATTCCGGTCTCCC
# DNA 2: TGGTGGCTACGACGGGATT
# B2: CGGAUGG (DNA:RNA)
# RNA: B1 RNA with U25C, C26G, A27G, C28A, A29U, A30G
# DNA 1: CAATCTGAATTCCGGTCTCCC
# DNA 2: TGGTGGCTACGACGGGATT
# B3: ACAUGAA (DNA:RNA)
# RNA: B1 RNA with U25A, C28U, A29G, G31A
# DNA 1: CAATCTGAATTCCGGTCTCCC
# DNA 2: TGGTGGCTACGACGGGATT
# B4: GAUUAAA (DNA:RNA)
# RNA: B1 RNA with U25G, C26A, A27U, C28U, G31A
# DNA 1: CAATCTGAATTCCGGTCTCCC
# DNA 2: TGGTGGCTACGACGGGATT
# B5: UUGGCGG (DNA:RNA)
# RNA: B1 RNA with C26U, A27G, C28G, A29C, A30G
# DNA 1: CAATCTGAATTCCGGTCTCCC
# DNA 2: TGGTGGCTACGACGGGATT
# B6: GACCAAG (DNA:RNA)
# RNA: B1 RNA with U25G, C26A, A27C
# DNA 1: CAATCTGAATTCCGGTCTCCC
# DNA 2: TGGTGGCTACGACGGGATT
# B7: CUAACGG (DNA:RNA)
# RNA: B1 RNA with U25C, C26U, C28A, A29C, A30G
# DNA 1: CAATCTGAATTCCGGTCTCCC
# DNA 2: TGGTGGCTACGACGGGATT
# B8: GCACCAU (DNA:RNA)
# RNA: B1 RNA with U25G, A29C, G31U
# DNA 1: CAATCTGAATTCCGGTCTCCC
# DNA 2: TGGTGGCTACGACGGGATT
# B9: CGCUCCC (DNA:RNA)
# RNA: GGGAGACCGGAAUUCAGAUUGUCCCGCUCCCUUAAAUCCCGUCGUAGCCACCA
# DNA 1: CAATCTGAATTCCGGTCTCCC
# DNA 2: TGGTGGCTACGACGGGATT
# Biological target: T1, RBFOX1 RRM RbFoxmut (Fox-RRM*)
# Test: EMSA; HiTS-Eq, 1 nM pool, 10 min; buffer printed only for the single-RNA assays: 10 mM Tris pH 7.5, 150 mM NaCl, 3.4 mM EDTA, 0.001% NP-40, 30 C
# Conditions: tags: His6 N-terminal (pET28a); label: 5' 32P
# Outline: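 Purified RbFox RRM (wild type or mutant) was equilibrated for 10 min in 50 µL with 1 nM of a 5′-radiolabelled pool of RNA with 7 randomized nucleotides, its flanks annealed to DNA oligonucleotides, across increasing protein concentrations. Free RNA was separated by 8% native PAGE, excised, reverse-transcribed, PCR-barcoded and sequenced on an Illumina HiSeq 2500. Relative association constants came from read-count changes of each variant against the control reaction, normalised to the cognate motif.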
row,Binder,binding signal
1,B1,0.086 KA relative to UGCAUGU
2,B2,0.175 KA relative to UGCAUGU
3,B3,0.143 KA relative to UGCAUGU
4,B4,0.0844 KA relative to UGCAUGU
5,B5,0.115 KA relative to UGCAUGU
6,B6,0.0689 KA relative to UGCAUGU
7,B7,0.0713 KA relative to UGCAUGU
8,B8,0.0804 KA relative to UGCAUGU
9,B9,0.0599 KA relative to UGCAUGU
